Drawing on the antibiotic and cytotoxicity screens of Wong et al. (2023), this text covers cytotoxicity call for eleven molecules.

The list shows a part of the results.

This test relates to HepG2. As to the kind of experiment: cytotoxicity call (relative viability < 0.9). The following applies: 10 µM.
Consider `Cc1noc(C)c1NC(=O)N(C)C[C@H]1Oc2ccc(NC(=O)Cn3cnnn3)cc2CC(=O)N([C@@H](C)CO)C[C@@H]1C`, for which the cytotoxicity call is “inactive”. For `C[C@H]1CN([C@@H](C)CO)C(=O)Cc2cc(NC(=O)Cn3cnnn3)ccc2O[C@H]1CN(C)S(=O)(=O)c1ccc(Cl)cc1`, the cytotoxicity call was “inactive”. For `COc1ccc(NC(=O)Nc2ccc3c(c2)C(=O)N([C@@H](C)CO)C[C@H](C)[C@@H](CN(C)Cc2ccncc2)OCCCC[C@@H](C)O3)cc1`, the cytotoxicity call is “active”. As to `COC(=O)[C@H](Cc1ccccc1)N1CC2=C[C@@H](C3CC3)n3c(=O)n(C)c(=O)n3[C@H]2[C@@H]1[C@@H](O)Cc1ccccc1`, the cytotoxicity call was “inactive”. As for `CC=Cc1ccc2n(c1=O)C[C@H]1[C@H](CO)[C@@H](C(=O)NCC)[C@@H]2N1S(=O)(=O)c1cn(C)cn1`, the entry is “inactive”; as for `COc1ccc(C#Cc2cnc3c(c2)C(=O)N([C@H](C)CO)C[C@H](C)[C@H](CN(C)C(=O)Nc2c(C)noc2C)O3)cc1OC`, “inactive”; as for `O=C(C[C@@H]1CC[C@H]2[C@@H](COC[C@H](O)CN2S(=O)(=O)c2cccc(F)c2)O1)NCc1ccncn1`, “inactive”. As for `C1CN(C2CCOCC2)CCN1`, the entry is “inactive”; as for `C[C@@H]1CN([C@H](C)CO)C(=O)Cc2cc(NC(=O)Nc3ccc(C(F)(F)F)cc3)ccc2O[C@@H]1CN(C)C(=O)Nc1ccc(F)cc1`, “active”. As for `Cc1ccc(S(=O)(=O)N(C)C[C@@H]2Oc3ccc(NC(=O)CCN4CCOCC4)cc3CC(=O)N([C@H](C)CO)C[C@@H]2C)cc1`, the entry is “inactive”; as for `Cc1cc(C(=O)Nc2cccc3c2O[C@H](CN(C)Cc2ccc4c(c2)OCO4)[C@H](C)CN([C@@H](C)CO)C3=O)n(C)n1`, “inactive”.
